Some of the results follow.
What was measured:
Assay in all cases: glycan array binding signal (z-score within array); higher = stronger binding
Settings in all cases: glycan notation: IUPAC condensed, linker removed
[1] = target: Gal(b1-4)GlcNAc(b1-3)Gal(b1-4)GlcNAc(b1-3)[Gal(b1-4)GlcNAc(b1-3)Gal(b1-4)GlcNAc(b1-6)]GalNAc
Outline: (§1)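 Glycan array data came from 3228 arrays in the Consortium for Functional Glycomics database, and only arrays with an available protein sequence were kept. Glycan names were put into IUPAC-condensed notation, and columns mapping to the same glycan were averaged. The binding signal is a within-array Z-score, averaged across arrays of one protein sequence run at different concentrations or buffers and across linkers. A negative Z-score can be read as non-binding.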

[2] = target: Gal(b1-4)GlcNAc(b1-3)Gal(b1-4)GlcNAc(b1-6)[Gal(b1-3)]GalNAc
Outline: as §1

[3] = target: Gal(b1-4)GlcNAc(b1-3)Gal(b1-4)[Fuc(a1-3)]GlcNAc(b1-3)Gal(b1-4)[Fuc(a1-3)]GlcNAc
Outline: as §1

[4] = target: Gal(b1-4)GlcNAc(b1-3)GalNAc
Outline: as §1

[5] = target: Gal(b1-4)GlcNAc(b1-3)[Fuc(a1-3)GlcNAc(b1-6)]Gal(b1-4)Glc
Outline: as §1

[6] = target: Gal(b1-4)GlcNAc(b1-3)[Gal(b1-4)GlcNAc(b1-6)]Gal(b1-4)GlcNAc
Outline: as §1

[7] = target: Gal(b1-4)GlcNAc(b1-3)[GlcNAc(b1-6)]Gal(b1-4)GlcNAc
Outline: as §1

[8] = target: Gal(b1-4)GlcNAc(b1-6)Gal(b1-4)GlcNAc
Outline: as §1

[9] = target: Gal(b1-4)GlcNAc(b1-6)GalNAc
Outline: as §1

[10] = target: Gal(b1-4)GlcNAc(b1-6)[Gal(b1-3)]GalNAc
Outline: as §1

[11] = target: Gal(b1-4)GlcNAc(b1-6)[Gal(b1-4)GlcNAc(b1-3)]GalNAc
Outline: as §1

[12] = target: Gal(b1-4)GlcNAc6P
Outline: as §1

[13] = target: Gal(b1-6)Gal
Outline: as §1

[14] = target: Gal3S(b1-3)GalNAc
Outline: as §1

[15] = target: Gal3S(b1-3)GlcNAc
Outline: as §1

[16] = target: Gal3S(b1-3)[Fuc(a1-4)]GlcNAc
Outline: as §1

[17] = target: Gal3S(b1-4)Glc
Outline: as §1

[18] = target: Gal3S(b1-4)Glc6S
Outline: as §1

[19] = target: Gal3S(b1-4)GlcNAc
Outline: as §1

[20] = target: Gal3S(b1-4)[Fuc(a1-3)]Glc6S
Outline: as §1

[21] = target: Gal3S(b1-4)[Fuc(a1-3)]GlcNAc
Outline: as §1

[22] = target: Gal3S(b1-4)[Fuc(a1-3)]GlcNAc6S
Outline: as §1

[23] = target: Gal3S4S(b1-4)GlcNAc
Outline: as §1

[24] = target: Gal3S6S(b1-4)GlcNAc
Outline: as §1

[25] = target: Gal3S6S(b1-4)GlcNAc6S
Outline: as §1

[26] = target: Gal4S(b1-4)GlcNAc
Outline: as §1

[27] = target: Gal4S6S(b1-4)GlcNAc
Outline: as §1

[28] = target: Gal6P(b1-4)GlcNAc
Outline: as §1

[29] = target: Gal6S(b1-3)GlcNAc
Outline: as §1

[30] = target: Gal6S(b1-3)GlcNAc6S
Outline: as §1

[31] = target: Gal6S(b1-4)Glc
Outline: as §1

[32] = target: Gal6S(b1-4)Glc6S
Outline: as §1

[33] = target: Gal6S(b1-4)GlcNAc
Outline: as §1

[34] = target: Gal6S(b1-4)GlcNAc6S
Outline: as §1

[35] = target: GalNAc(a1-3)Gal
Outline: as §1

[36] = target: GalNAc(a1-3)GalNAc
Outline: as §1

[37] = target: GalNAc(a1-3)GalNAc(b1-3)Gal(a1-4)Gal(b1-4)Glc
Outline: as §1

[38] = target: GalNAc(a1-3)GalNAc(b1-3)Gal(a1-4)Gal(b1-4)GlcNAc
Outline: as §1

[39] = target: GalNAc(b1-3)Gal
Outline: as §1

[40] = target: GalNAc(b1-3)Gal(a1-4)Gal(b1-4)GlcNAc
Outline: as §1

[41] = target: GalNAc(b1-3)Gal(a1-4)Gal(b1-4)GlcNAc(b1-3)Gal(b1-4)Glc
Outline: as §1

[42] = target: GalNAc(b1-3)Gal(a1-6)Gal(b1-4)Glc
Outline: as §1

[43] = target: GalNAc(b1-3)GalNAc
Outline: as §1

[44] = target: GalNAc(b1-3)GlcNAc
Outline: as §1

[45] = target: GalNAc(b1-4)Gal(b1-4)Glc
Outline: as §1

B1: AFCNVH (Aspergillus fumigatus) (protein)
chain: MSLRGFHTTCDTIVLKDKHILSSRCKRPDGTYSFSEIDLNDCLGNNNGKFVWGGESFVDSASQVNLALEGGEGRPMLHAQLNDWHGSVQSASVNLGECIQNEAGGLEYMHC
In the case of B1, the “glycan array binding signal (z-score)” value [1] is reported as -0.168, the “glycan array binding signal (z-score)” value [2] is reported as -0.201 and the “glycan array binding signal (z-score)” value [3] is reported as -0.254. The “glycan array binding signal (z-score)” value [4] was -0.361, the “glycan array binding signal (z-score)” value [5] was -0.451 and the “glycan array binding signal (z-score)” value [6] was -0.411. For the same binder, the “glycan array binding signal (z-score)” value [7] was 4.53, the “glycan array binding signal (z-score)” value [8] was 0.078 and the “glycan array binding signal (z-score)” value [9] was 2.35. The “glycan array binding signal (z-score)” value [10] was -0.092, the “glycan array binding signal (z-score)” value [11] was -0.368 and the “glycan array binding signal (z-score)” value [12] was -0.305. The “glycan array binding signal (z-score)” value [13] was -0.308, the “glycan array binding signal (z-score)” value [14] was -0.454 and the “glycan array binding signal (z-score)” value [15] was -0.342. For the same binder, the “glycan array binding signal (z-score)” value [16] was -0.423, the “glycan array binding signal (z-score)” value [17] was -0.422 and the “glycan array binding signal (z-score)” value [18] was -0.422. For the same binder, the “glycan array binding signal (z-score)” value [19] was -0.451, the “glycan array binding signal (z-score)” value [20] was -0.201 and the “glycan array binding signal (z-score)” value [21] was -0.11. The “glycan array binding signal (z-score)” value [22] was -0.387, the “glycan array binding signal (z-score)” value [23] was -0.005 and the “glycan array binding signal (z-score)” value [24] was -0.196. The “glycan array binding signal (z-score)” value [25] was -0.301, the “glycan array binding signal (z-score)” value [26] was -0.404 and the “glycan array binding signal (z-score)” value [27] was -0.314. The “glycan array binding signal (z-score)” value [28] was -0.456, the “glycan array binding signal (z-score)” value [29] was -0.334 and the “glycan array binding signal (z-score)” value [30] was -0.401. For the same binder, the “glycan array binding signal (z-score)” value [31] was -0.435, the “glycan array binding signal (z-score)” value [32] was -0.557 and the “glycan array binding signal (z-score)” value [33] was -0.448. For the same binder, the “glycan array binding signal (z-score)” value [34] was -0.246, the “glycan array binding signal (z-score)” value [35] was 0.388 and the “glycan array binding signal (z-score)” value [36] was -0.428. The “glycan array binding signal (z-score)” value [37] was -0.347, the “glycan array binding signal (z-score)” value [38] was -0.151 and the “glycan array binding signal (z-score)” value [39] was -0.243. For the same binder, the “glycan array binding signal (z-score)” value [40] was 0.245, the “glycan array binding signal (z-score)” value [41] was -0.316 and the “glycan array binding signal (z-score)” value [42] was -0.462. The “glycan array binding signal (z-score)” value [43] was 2.28, the “glycan array binding signal (z-score)” value [44] was -0.335 and the “glycan array binding signal (z-score)” value [45] was -0.408.
